The structures appear in SMILES notation. About 540 (0.36%) of roughly 150,000 compounds showed an effect of 50% or more. This is one part of the list.

We go through 53 molecules from ChEMBL document CHEMBL4888484, “Replenishing the malaria drug discovery pipeline: Screening and hit evaluation of the MMV Hit Generation Library 1 (HGL1) against asexual blood stage Plasmodium falciparum ,using a nano luciferase reporter read-out” (2022).

The assay has as its system Plasmodium falciparum. Description: Primary screen in NF54 nanoGlo assay, in single point, at 2uM, 72h; a lower Z score goes with more inhibition. It is filed as functional, Erythrocyte. Conditions: timepoint 72 hour.
What is called % Inhibition is the change of the read-out against control, counted positive when it falls. Take `Cc1ccc(C(C)C)c(OC(=O)NCCCCNC(=O)Oc2cc(C)ccc2C(C)C)c1`: the “% Inhibition” value is listed as -13% and the Z score came to 1.96.
The like results for `O=C(NC[C@@H](c1ccco1)S(=O)(=O)c1ccccc1)Oc1ccccc1` were, in that order, -8% and 1.22.
`CCC(=O)N1C[C@@H](c2cc(F)cc(F)c2)[C@@H]2[C@H]1C1CCN2CC1`: the “% Inhibition” value is recorded as 1% and the Z score is on record as -0.19.
The like results for `Fc1ccc(COc2ccc3c(c2)CCNC3)cc1` were, in that order, -4% and 0.67.
The like results for `Cc1cc(C)cc(NC(=O)[C@H]2CC23CCNCC3)c1` were, in that order, -5% and 0.97.
The like results for `C[C@@H](Cc1ccsc1)NCc1cn(CC(F)(F)F)c(=O)[nH]c1=O` were, in that order, -1% and 0.22.
Turning to `CCCc1nn(Cc2ccn(C(C)C)n2)c(=O)o1`, the “% Inhibition” value is -9% and the Z score amounted to 0.81.
The like results for `O=C(c1ccc(Cl)cc1)N1C[C@H]2c3ccccc3OC[C@@]2(C(=O)O)C1` were, in that order, -9% and 1.17.
The corresponding values for `COC(=O)C1C2C(=O)N(c3ccc(OC)cc3)C(=O)C12c1ccc(C)cc1` (stereo unspecified) are 3% and -0.35.
The corresponding values for `COc1ccccc1CCN1C(=O)N(c2cccc(C(F)(F)F)c2)[C@@H](n2oc(=O)n(-c3cccc(C(F)(F)F)c3)c2=O)C1(C)C` are -4% and 0.56.
Turning to `CC(C)(O)CN[C@@H](Cc1cccnc1)c1cccc(Cl)c1`, the “% Inhibition” value is -12% and the Z score came out at 1.6.
The corresponding values for `CC(C)C(C)(O)C(=O)N1C2CCC1C(CO)C2` (stereo unspecified) are -5% and 0.99.
The like results for `CC(C)N1C(=O)NC(=O)C2(Cc3c(Cl)cccc3N3CCCC32)C1=O` (stereo unspecified) were, in that order, -6% and 0.84.
The like results for `CN(C)CCc1ccc(NC(=O)[C@@H]2CCCCN2C)cc1` were, in that order, 4% and -0.49.
With `CCc1nccn1C[C@H](C)N1CCN(C(C)C)CC1`, the “% Inhibition” value is recorded as 2% and the Z score is listed as -0.47.
The corresponding values for `C=C(C)C(C)(C)C(=O)Nc1cccc(S(=O)(=O)F)c1` are -3% and 0.36.
Take `CC(C)(C)N1C(=O)NC(=O)C2(Cc3cc(NC(=O)c4ccc(F)cc4)ccc3N3CCCCCC32)C1=O` (stereo unspecified): the “% Inhibition” value is on record as -8% and the Z score is given as 1.59.
The corresponding values for `CC(C)N1C[C@@H]2OCC(=O)N(C(C)C)[C@@H]2C1` are 15% and -1.71.
The corresponding values for `Cc1cc(C(=O)NC2CC2)nn1[C@@H](C)C1CC1` are -5% and 0.91.
The corresponding values for `O=C(NCCN1CCCC1=O)c1ccc(-c2ccc3oc(=O)[nH]c3c2)cc1` are -13% and 2.55.
`COc1cc(-c2noc(-c3ccccc3)n2)ccc1OCC(=O)N1CCN(Cc2ccccc2)CC1`: the “% Inhibition” value is reported as -2% and the Z score was found to be 0.29.
`CN1CC[C@@H]2CN(C(=O)CC3(C)CC3)C[C@@H]21`: the “% Inhibition” value is -4% and the Z score was 0.42.
Regarding `Cc1nc2n(n1)CC(NC(C)Cc1ccccc1F)CC2` (stereo unspecified), the “% Inhibition” value stood at 11% and the Z score is -1.64.
Consider `CCc1ncc(C(=O)N2C[C@H](c3ccc(C)cc3)[C@@H]3[C@H]2C2CCN3CC2)cn1`, for which the “% Inhibition” value is listed as -1% and the Z score is listed as 0.14.
In the case of `O=C1O[C@H]2CN(C3CCCC3)C[C@H]2N1CCc1ccccn1`, the “% Inhibition” value is given as -22% and the Z score was 1.93.
The corresponding values for `CN1CCN(Cc2ccc3c(c2)OCCO3)C[C@@H]1CCO` are -14% and 1.83.
Turning to `O=C(O)[C@@H](c1ccccc1F)N1CCC(c2c[nH]c3ccccc23)CC1`, the “% Inhibition” value was -12% and the Z score was 1.
Turning to `Oc1ccc(Cl)cc1C1=NN[C@H](c2cccnc2)C1`, the “% Inhibition” value came out at 19% and the Z score is on record as -2.43.
Take `CCCn1cc(C(=O)N[C@@H]2c3ccccc3C[C@H]2O)c(C)n1`: the “% Inhibition” value is 3% and the Z score was -0.38.
The corresponding values for `CCN(CC)C(=O)[C@H](C)N1CCc2ccnc(N(C)C)c2C1` are -4% and 0.57.
The corresponding values for `CC(Cc1ccc(O)cc1)NC(C)c1ccc2ccccc2n1` (stereo unspecified) are -15% and 1.3.
The like results for `O=c1cnc2ccccc2n1Cc1cncn1C1CC1` were, in that order, -1% and 0.17.
Regarding `O=C(c1cnn(Cc2ccccc2)c1)N1CCC2(CC1)OCCO2`, the “% Inhibition” value is listed as -6% and the Z score was 0.92.
`CC(C)N1C(=O)NC(=O)C2(Cc3ccccc3N3CCN(Cc4ccccc4)CC32)C1=O` (stereo unspecified): the “% Inhibition” value is on record as 34% and the Z score is recorded as -1.78.
The corresponding values for `COCCOCC(=O)N1C[C@@H](c2ccc(F)cc2)[C@@H]2[C@H]1C1CCN2CC1` are 3% and -0.54.
Regarding `Cc1ccc(CNC(=O)N2[C@@H]3CC[C@H]2Cc2nc(C)[nH]c(=O)c2C3)cc1`, the “% Inhibition” value is recorded as -9% and the Z score was found to be 1.35.
The like results for `Cc1ocnc1C(=O)N[C@H]1COC[C@@H]1N1CCCC1` were, in that order, -5% and 0.77.
For `CCCN1C[C@@H]2Oc3ncccc3C(=O)N(C)[C@@H]2C1`, the “% Inhibition” value is -6% and the Z score came out at 0.89.
Regarding `CCOc1ccccc1OCC#CCN1CCCC1`, the “% Inhibition” value is -15% and the Z score was 1.73.
The corresponding values for `Cc1cc(CC(C)NC2CC3CCC(C2)N3C(=O)OC(C)(C)C)n[nH]1` (stereo unspecified) are -1% and 0.08.
The corresponding values for `Cn1cc(C(=O)N[C@@H]2c3ccccc3CC[C@@H]2O)c2cc(F)ccc21` are -12% and 1.62.
On to `COc1cccc([C@H]2CN(S(=O)(=O)N(C)C)[C@@H]3C4CCN(CC4)[C@H]23)c1`, for which the “% Inhibition” value is listed as -7% and the Z score amounted to 0.79.
The like results for `OCc1ccnc(N2CCC[C@H]2c2cncc(Br)c2)n1` were, in that order, 4% and -0.77.
Take `O=c1[nH]c2ccc(S(=O)(=O)NCc3cccn3Cc3ccccc3)cc2o1`: the “% Inhibition” value is given as -13% and the Z score worked out at 1.29.
With `Cc1ccccc1C(=O)N1CCC2(CC1)c1nccn1-c1ccccc1CN2CC(C)C`, the “% Inhibition” value is recorded as -13% and the Z score was determined as 1.7.
The like results for `Cc1noc(C)c1CN1CCCN(C(=O)Cc2ccccc2)CC1` were, in that order, -6% and 0.74.
`O=C1CN(CC23CCC(CC2)C3)CCN1`: the “% Inhibition” value was determined as 2% and the Z score is recorded as -0.23.
The like results for `O=C(Cc1cnccn1)N1C[C@@H]2CC[C@H]1CN(Cc1cscn1)C2` were, in that order, -8% and 1.07.
The corresponding values for `CN1CCC(N(C)C2CCCCC2N(C)C(=O)Cc2ccc(O)cc2)CC1` (stereo unspecified) are 34% and -4.44.
For the molecule `CC[C@@H](Cn1ccnc1)NCc1cc(C)c(C)o1`, the “% Inhibition” value is on record as 0% and the Z score is given as 0.01.
On to `COCC1(C(=O)N2C[C@H](c3ccccc3)[C@@H]3[C@H]2C2CCN3CC2)CCC1`, for which the “% Inhibition” value is recorded as -5% and the Z score is recorded as 0.67.
The like results for `COC[C@H](C)NCc1ccc(C#N)c(Cl)c1` were, in that order, -7% and 0.71.
The corresponding values for `c1ccc([C@H]2CN(Cc3nccs3)[C@@H]3C4CCN(CC4)[C@H]23)cc1` are 2% and -0.29.
